61 compounds from PubChem BioAssay AID1508624 (National Center for Advancing Translational Sciences (NCATS), 2021) can be followed below.

The structures appear in SMILES notation. Hit rate of the full screen: of about 48,000 compounds, about 120 (0.25%) were called active. Not shown: some 4% with an inconclusive outcome. Calls follow the shape of the dose curve; as a rule, active = well fitted activation curve with a large enough effect; inconclusive = small, poorly fitted or top-dose-only effect, or another doubt; inactive = no such curve, though single readings can be large or run the other way. The entries are a selection whose mix differs from that of the whole data set. Entries without a call were filed so in the source.
Potency is read from the fitted curve at half-maximal effect.

The assay in a line: Primary qHTS for Identification of Small Molecule Activators of Huntingtin-Antisense Promoter Activity. Also: nearly all actives have a fitted effect of over 55% in size. As to conditions: HEK293 HTT-AS promoter firefly luciferase reporter, 24 h; activity change, positive = activation: at 57.5 µM (top of the series), percent change from vehicle, -100% = no light. Summed up: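 HEK293 luciferase promoter-reporter cells (2,500/well) plated 24 h, then compounds added at up to 57.5 uM final for 24 h at 37 °C. Firefly luminescence by Dual-Glo, normalized to vehicle (0%) and zero RLU (-100%).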
`O=C(NCC(c1cccs1)S(=O)(=O)c1cccs1)c1ccc(F)c(F)c1` (stereo unspecified): the “activity change, positive = activation” value is inactive: -18.5%.

As for `CCN(CC)c1ccc(C(=O)N2CCc3c([nH]c4ccccc34)C2c2ccc(F)cc2)cc1` (stereo unspecified), the “activity change, positive = activation” value was inactive: -22.7%.

For the compound `CC(C)Cc1cc(C(=O)NCc2ccc(Cl)cc2)no1`, the activity change, positive = activation turned out to be 12.8%.

For `COC(=O)CN1C(=O)CSc2ccc(S(=O)(=O)Nc3ccc(F)c(Cl)c3)cc21`, the activity change, positive = activation is -7.59%.

Consider `CC(C)c1ccc(C2CC(=O)Nc3cc4c(cc32)OCCO4)cc1` (stereo unspecified), for which the “activity change, positive = activation” value is inactive: -43.4%.

Consider `Cc1c(Cl)cccc1NC(=O)c1cc(-c2ccc3c(c2)OCO3)on1`, for which the activity change, positive = activation amounted to 10.1%.

Take `Cc1nn(CC(=O)NC2CC2)c(=O)c2cc3cc(F)ccc3n12`: the activity change, positive = activation was -9.4%.

On to `Cc1ccc(NC(=O)c2ccc3c(c2)NC(=O)c2ccccc2S3)c(Cl)c1`, for which the activity change, positive = activation was -42.3%.

As for `CC(C)COc1ccc(C(=O)N2CCCCC2CCN2CCOCC2)cc1` (stereo unspecified), the “activity change, positive = activation” value is inactive: -4.62%.

Regarding `COc1ccccc1C(=O)N(c1ccc(C)cc1)S(=O)(=O)c1ccc(Cl)cc1`, the activity change, positive = activation was -27.3%.

Turning to `Cc1nc2cccnc2n1C1CCN(S(C)(=O)=O)CC1`, the activity change, positive = activation is -7.61%.

Take `CN(CCCNC(=O)c1cc2c(Cl)nc3ccccc3c2s1)Cc1ccccc1`: the “activity change, positive = activation” value was inactive: -23.2%.

As to `COc1ccc(Br)c(C(=O)Nc2cc3c(cc2N2CCOCC2)n(C)c(=O)n3C)c1`, the activity change, positive = activation was 2.69%.

With `CC(=O)c1cccc(NC(=O)Cn2c(-c3cncs3)nc3ccccc32)c1`, the activity change, positive = activation is -19.9%.

`CCOC(=O)c1cccc(NC(=O)CC2C(=O)N(c3ccccc3)C(=O)N2Cc2ccco2)c1` (stereo unspecified): the activity change, positive = activation is -15.3%.

As to `CC(C)CCSc1nc2c(c(=O)n(C)c(=O)n2C)n1Cc1ccccc1Cl`, the activity change, positive = activation was determined as 18.1%.

`COc1ccc(-c2cc(C(=O)Nc3ccc(C#N)cc3)no2)cc1`: the activity change, positive = activation is -14.2%.

In the case of `Oc1cccc(C(Nc2ccccn2)c2ccc3cccnc3c2O)c1Cl` (stereo unspecified), the activity change, positive = activation is -1.78%.

As for `CCOC(=O)Cc1ccc(NC(=O)n2ncc3c(C)cccc32)cc1`, the activity change, positive = activation was -64.7%.

With `CC(=O)Nc1ccc(S(=O)(=O)Nc2cccc(-c3ccc(N4CCC(C)CC4)nn3)c2)cc1`, the activity change, positive = activation was 31.5%.

For `Cc1nn(CC(=O)NCCc2ccc(Cl)cc2)c(=O)c2cc3cc(F)ccc3n12`, the activity change, positive = activation was -3.86%.

Consider `Cc1cccc(C(=O)Nc2ccc(-c3nc4ccccc4s3)cc2Cl)c1`, for which the “activity change, positive = activation” value was inactive: 13.8%.

Regarding `CC1CCCCN1Cc1c(O)ccc2c(=O)c(-c3cccc(Cl)c3)c(C(F)(F)F)oc12` (stereo unspecified), the activity change, positive = activation is -9.1%.

As to `CC(=O)c1c(C)oc2ccc(N(C(=O)Oc3ccccc3)S(=O)(=O)c3ccc(Br)cc3)cc12`, the activity change, positive = activation is -17.1%.

With `CCCCc1ccc(NC(=O)Cn2cnc3c2c(=O)n(C)c(=O)n3C)cc1`, the activity change, positive = activation is -10.4%.

On to `COc1cccc(-c2cc(C(=O)Nc3cccnc3Cl)no2)c1`, for which the activity change, positive = activation came out at 14.7%.

On to `CC1Cc2cc(S(=O)(=O)CCC(=O)Nc3ccc(OC(F)(F)F)cc3)ccc2N1C(=O)C1CC1` (stereo unspecified), for which the activity change, positive = activation is -24.9%.

With `COc1ccc(C2c3cc(OC)c(OC)cc3CC(=O)N2c2cccc(C#N)c2)cc1` (stereo unspecified), the activity change, positive = activation was -6.3%.

In the case of `Cc1ccc(Cc2nc3ccccc3nc2SCC(=O)N2CCN(c3ccccc3F)CC2)cc1`, the activity change, positive = activation was -13.2%.

As for `Cc1ccccc1NC(=O)CCc1c(C)nn(-c2ccc(N3CCCCC3)nn2)c1C`, the activity change, positive = activation is 18.6%.

Take `Cc1cc2nn(-c3ccc(F)cc3)nc2cc1NC(=O)c1ccc(OC(C)C)cc1`: the “activity change, positive = activation” value was inactive: -1.48%.

Regarding `CCc1ccc(CNC(=O)CCc2c(C)nn(-c3ccc(N4CCCCC4)nn3)c2C)cc1`, the activity change, positive = activation was -23.7%.

As to `Cc1ccc(CNC(=O)CCS(=O)(=O)c2ccc3c(c2)CC(C)N3C(=O)C2CC2)cc1` (stereo unspecified), the activity change, positive = activation is -10.6%.

With `Cc1ccc(CNC(=O)C2CCN(S(=O)(=O)Cc3ccccc3)CC2)cc1`, the activity change, positive = activation is -2.98%.

On to `O=c1oc2ccccc2n1CCCOc1ccccc1Cl`, for which the Potency was active: 7.94 µM.

Take `COc1cc(NC(=O)c2cc3c(=O)n(Cc4ccco4)ccc3nc2C)cc(OC)c1OC`: the activity change, positive = activation is -19.3%.

Take `COc1ccc(S(=O)(=O)Nc2cccc(-c3ccc(N4CCCCC4)nn3)c2)cc1F`: the activity change, positive = activation amounted to 46.8%.

With `O=C(NCc1ccccc1Cl)c1ccc2c(c1)NC(=O)C(CS(=O)(=O)Cc1ccc(Cl)cc1)N2` (stereo unspecified), the activity change, positive = activation is -8.34%.

Regarding `COc1ccc2c(C)c(CCC(=O)NCc3ccccc3OC)c(=O)oc2c1`, the activity change, positive = activation is 3.91%.

Consider `CC(C)(C)C1CCc2c(sc(NC(=O)c3noc4c3CCCC4)c2C#N)C1` (stereo unspecified), for which the activity change, positive = activation is -5.09%.

In the case of `O=c1c2oc3ccccc3c2n(Cc2ccccc2)c(=O)n1Cc1ccco1`, the “activity change, positive = activation” value was inactive: -15.5%.

Take `CCOC(=O)c1c(N)n(-c2cc(C)cc(C)c2)c2nc3ccccc3nc12`: the activity change, positive = activation was -1.03%.

For `Cc1ccc(-c2ccc(CCC(=O)O)n2-c2cccc(C)c2C)cc1`, the activity change, positive = activation is -13.8%.

As to `Cc1ccc(C(=O)N2CCN(Cc3cc(=O)n4nc(-c5ccccc5)sc4n3)CC2)cc1`, the activity change, positive = activation stood at 0.529%.

For `CCc1nn2c(=O)c(S(=O)(=O)Nc3ccc(C)c(C)c3)c(C)nc2s1`, the activity change, positive = activation was -31.9%.

For the compound `COc1ccc(CNC(=O)Cn2c(-c3ccccc3)cc(C(C)=O)c2C)cc1OC`, the activity change, positive = activation is -23.4%.

For `CC(C)(N)C(=O)N[C@H](COCc1ccccc1)C(=O)N1CCC2(CC1)CN(S(C)(=O)=O)c1ccccc12`, the “activity change, positive = activation” value is inactive: -4.33%.

On to `Cc1cc(NC(=O)c2cc(-c3ccc(Br)cc3)on2)nn1Cc1ccc(Cl)cc1`, for which the activity change, positive = activation is -14.6%.

On to `CN1CCN(C(=O)Cn2c(-c3cccs3)cc3ccccc32)CC1`, for which the “activity change, positive = activation” value was inactive: -11.9%.

Take `Cc1nc2ccn(Cc3ccco3)c(=O)c2cc1C(=O)Nc1ccc(F)cc1`: the activity change, positive = activation is -22.2%.

As for `COc1ccc(CNC(=O)CCc2c(C)c3ccc(OC)c(C)c3oc2=O)cc1OC`, the activity change, positive = activation is -8.48%.

Take `Cc1cc(NC(=O)c2ccccc2F)ccc1-c1nc2ccccc2s1`: the Potency was active: 0.891 µM.

Take `COc1ccc(S(=O)(=O)N2CCC(N3CCN(Cc4ccccc4)C(=O)C3=O)CC2)cc1`: the activity change, positive = activation amounted to 7.88%.

As to `Cc1nc2ccn(Cc3cccs3)c(=O)c2cc1C(=O)NCc1ccc(Br)cc1`, the activity change, positive = activation was -37.5%.

For `CCCc1cc(=O)n2c(C(=O)Nc3ccc(OCC)cc3)c(C(=O)Nc3ccc(C)cc3)sc2n1`, the activity change, positive = activation is -7.45%.

Take `COc1ccc(C)cc1NC(=O)CCc1c(C)nn(-c2ccc(N3CCCCC3)nn2)c1C`: the activity change, positive = activation worked out at 16.5%.

In the case of `CC1CCN(c2nn3c(=O)c(C(=O)NCCc4ccccc4)cnc3s2)CC1`, the activity change, positive = activation was 7.72%.

With `Cc1ccc(C2Nc3cc(C)c(C)cc3-n3c(-c4ccccc4)c4c(=O)n(C)c(=O)n(C)c4c32)o1` (stereo unspecified), the activity change, positive = activation came out at 12.3%.

Consider `Cc1nc2scc(C)n2c(=O)c1S(=O)(=O)Nc1ccc(N2CCN(S(C)(=O)=O)CC2)cc1`, for which the activity change, positive = activation was -39.2%.

Turning to `CCOC(=O)c1cccc(NC(=O)CC2C(=O)N(c3ccc(C)cc3)C(=O)N2Cc2cccc(OC)c2)c1` (stereo unspecified), the activity change, positive = activation is -22.5%.

For `C[C@H](NC(=O)C(=O)Nc1ccccc1C(C)(C)C)C(=O)N[C@@H](CC(=O)O)C(=O)COc1c(F)c(F)cc(F)c1F`, the “activity change, positive = activation” value is inactive: -30.8%.
